Settings in all cases: 20 mM HEPES pH 7.9, 100 mM NaCl, 1 mM DTT, 0.2 mg/mL BSA, 0.02% Triton X-100, 2% milk, 0.4 mg/mL salmon testes DNA; 1 h; temperature not stated; high values mean tight binding; double strand, one strand shown; sequences stand for … in GCCTAGCAC…GTGCTAGGTCTTGATTCGCTTGACGCTGCTG
One assay has as its target PU.1 (IVT) (UniProt P17947). The experiment in a line: protein-binding microarray (PBM).
The target in assay [1] is PU.1 (endogenous, THP-1 nuclear extract) (UniProt P17947). In words: nuclear extract protein-binding microarray (nextPBM).
In assay [2] the target is T1, FLI1 (endogenous, THP-1 nuclear extract) (UniProt Q01543).
T1 sequence: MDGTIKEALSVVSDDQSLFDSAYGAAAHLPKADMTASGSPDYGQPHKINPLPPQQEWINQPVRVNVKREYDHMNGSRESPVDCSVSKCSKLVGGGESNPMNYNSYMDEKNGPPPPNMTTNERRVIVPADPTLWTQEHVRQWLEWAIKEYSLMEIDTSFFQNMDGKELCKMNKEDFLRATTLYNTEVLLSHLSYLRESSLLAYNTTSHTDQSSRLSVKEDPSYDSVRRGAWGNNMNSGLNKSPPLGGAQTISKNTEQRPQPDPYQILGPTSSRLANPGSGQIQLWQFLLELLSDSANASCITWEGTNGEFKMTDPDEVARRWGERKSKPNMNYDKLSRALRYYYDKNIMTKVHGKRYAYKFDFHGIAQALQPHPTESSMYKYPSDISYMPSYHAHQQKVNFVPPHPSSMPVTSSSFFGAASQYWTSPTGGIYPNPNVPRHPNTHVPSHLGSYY
The assay is described as above.

Some of the results follow. For part of these data: At the low end of the ranking the order means little. For part of these data: The protein was read in a cell extract, so binding may be indirect.

With GAAAAGAGGAAGTCAAACTT, the figures for the binding signal (in the assay with PU.1 (IVT); in assay [1]; in assay [2]) were 8.22 z-score, 7.45 z-score and 4.12 z-score, respectively.
In the same order, the values of TCAGGGAGGAAGTGGGGTAT are 3.46 z-score, 3.45 z-score and 2.86 z-score.
GCAATGGGGAAGTGGCCATT: the binding signal was 5.45 z-score in the assay with PU.1 (IVT), 5.73 z-score in assay [1] and 2.33 z-score in assay [2].
As for AAAATGGGGAAGTCGTTGGA, the binding signal in the assay with PU.1 (IVT) was 7.56 z-score; in assay [1], 7.23 z-score; in assay [2], 3.09 z-score.
With AGAAAGGGGAAGTGCTAAAC, the binding signal is 7.63 z-score with PU.1 (IVT), 7.23 z-score in assay [1] and 3.23 z-score in assay [2].
In the same order, the values of GCTTTAAGGAACTACTGTGG are 2.81 z-score, 2.69 z-score and 0.836 z-score.
Turning to TGAAGGAGGAAGTGGACTGA, the results for the binding signal (with PU.1 (IVT); in assay [1]; in assay [2]) were 5.4 z-score, 5.86 z-score and 2.83 z-score, respectively.
Consider TGTTTGGGGAAGTGAGGCAG, for which the binding signal with PU.1 (IVT) stood at 4.06 z-score; in assay [1], 4.87 z-score; in assay [2] it was 1.82 z-score.
In the same order, the values of AAAAACAGGAAGTCCATTTC are 7.59 z-score, 7.24 z-score and 4.75 z-score.
In the same order, the values of CCTGGGAGGAAGTGGAGAGA are 2.99 z-score, 3.03 z-score and 2.5 z-score.
In the same order, the values of TTTTTAAGGAAGTGCTGTTT are 5.83 z-score, 6.02 z-score and 2.54 z-score.
On to GGATAGGGGAAGTGAGCCGG, for which the results for the binding signal (in the assay with PU.1 (IVT); in assay [1]; in assay [2]) were 4.6 z-score, 5.46 z-score and 2.2 z-score, respectively.
In the same order, the values of CTAGAGAGGAAGTGTGGTTA are 3.73 z-score, 3.74 z-score and 3.04 z-score.
In the case of CGAAAGGGGAAGGGCTAAAC, the binding signal with PU.1 (IVT) is 2.64 z-score; in assay [1], 2.91 z-score; in assay [2], 0.685 z-score.
In the same order, the values of AGATACAGGAAGTGAGAGTT are 4.56 z-score, 5.23 z-score and 4.53 z-score.
In the same order, the values of CGAAAGGGGAAGTGCTAACC are 7.25 z-score, 7.11 z-score and 2.8 z-score.
Turning to GGCTGGAGGAAGTGGGGACG, the binding signal in the assay with PU.1 (IVT) is 2.48 z-score; in assay [1], 3.05 z-score; in assay [2], 2.11 z-score.
In the same order, the values of TGAAAGAGGAAGTTCAACCA are 7.44 z-score, 7.15 z-score and 3.47 z-score.
With GGGATGGGGAAGTGTCATAC, the figures for the binding signal (in the assay with PU.1 (IVT); in assay [1]; in assay [2]) were 4.11 z-score, 4.66 z-score and 1.69 z-score, respectively.
In the same order, the values of GGAATGAGGAACTGACAGTG are 5.58 z-score, 6.23 z-score and 2.28 z-score.
In the same order, the values of GAAAACAGGAAATCCCATAG are 3.38 z-score, 3.13 z-score and 3.47 z-score.
In the same order, the values of GCAAAGAGGAAGTCAAACTG are 5.89 z-score, 6.53 z-score and 3.18 z-score.
In the case of CCATGGAGGAACTGAGAGGG, the binding signal is 1.46 z-score with PU.1 (IVT), 1.88 z-score in assay [1] and 0.576 z-score in assay [2].
In the same order, the values of AGATTGGGGAAGTGACTCTA are 5.5 z-score, 6.43 z-score and 2.67 z-score.
In the same order, the values of GAAATCAGGAAGTGAAGATG are 5.85 z-score, 6.48 z-score and 3.43 z-score.
In the same order, the values of ACAAAAAGGAACTGTGCCCA are 1.91 z-score, 1.41 z-score and 0.511 z-score.
For GATAAGAGGAAGTCCTTTGT, the binding signal in the assay with PU.1 (IVT) amounted to 6.16 z-score; in assay [1] it was 6.5 z-score; in assay [2] it was 3.02 z-score.
In the same order, the values of AAAATCAGGAAGTGTGAGTC are 5.55 z-score, 6.12 z-score and 2.86 z-score.
As to CAGAAAAGGAAGTAAGCCAC, the binding signal with PU.1 (IVT) came to 3.98 z-score; in assay [1], 3.9 z-score; in assay [2], 2.55 z-score.
In the same order, the values of GAAAAGAGGAAGTCAATTTG are 8.54 z-score, 7.56 z-score and 4.55 z-score.
In the same order, the values of CTTTTGAGGAACTGCCAGAC are 3.68 z-score, 3.83 z-score and 0.81 z-score.
In the same order, the values of AAAAAAAGGAGCTGGCTAGA are -0.309 z-score, -0.0278 z-score and -0.433 z-score.
Take CGAAAGGGGAACTGCTAAAC: the binding signal worked out at 4.88 z-score with PU.1 (IVT), 5.4 z-score in assay [1] and 1.55 z-score in assay [2].
For the sequence GAAGAAAGGAAGTGAAAGCT, the results for the binding signal (in the assay with PU.1 (IVT); in assay [1]; in assay [2]) were 2.48 z-score, 2.46 z-score and 2.34 z-score, respectively.
For the sequence AGGAGGAGGAAGTGGATGGG, the binding signal in the assay with PU.1 (IVT) is 4.63 z-score; in assay [1] it was 4.68 z-score; in assay [2] it was 2.92 z-score.
In the case of CAAATGGGGAAGTGTCCCTT, the binding signal with PU.1 (IVT) amounted to 6.6 z-score; in assay [1], 7.1 z-score; in assay [2], 2.65 z-score.
Consider GGAATAAGGAAGTGATATAG, for which the results for the binding signal (with PU.1 (IVT); in assay [1]; in assay [2]) were 5.99 z-score, 6.39 z-score and 2.37 z-score, respectively.
In the same order, the values of CAGGAGAGGAACTGACAGGA are 2.12 z-score, 2.22 z-score and 1.03 z-score.
In the same order, the values of GAAAGAGGGAAGTGTATCTC are 4.87 z-score, 5.15 z-score and 1.74 z-score.
Turning to GAAAAGGGGAAGTTGGGTTG, the results for the binding signal (with PU.1 (IVT); in assay [1]; in assay [2]) were 8.21 z-score, 7.47 z-score and 4.24 z-score, respectively.
In the same order, the values of TATTTGGGGAAGTGTGTGAG are 4.71 z-score, 4.82 z-score and 1.92 z-score.
As for TATTTGAGGAAGTGTGAGAA, the binding signal in the assay with PU.1 (IVT) turned out to be 5.91 z-score; in assay [1], 6.14 z-score; in assay [2] it was 2.47 z-score.
In the same order, the values of CAAAAAAGGAACTGGCTAGA are 3.89 z-score, 2.93 z-score and 1.04 z-score.
In the case of GATAAGAGTAAGTCCTCTGT, the binding signal with PU.1 (IVT) was -0.23 z-score; in assay [1], 0.138 z-score; in assay [2] it was -0.0869 z-score.
Take CTGGCAGGGAACTACTGTGC: the binding signal was 1.25 z-score in the assay with PU.1 (IVT), 0.998 z-score in assay [1] and -0.133 z-score in assay [2].
In the same order, the values of GAAAAGAGGAAGTGAAATTG are 8.72 z-score, 7.57 z-score and 5.19 z-score.
In the same order, the values of ACAATGGGGAAGTGGCACTC are 5.32 z-score, 5.93 z-score and 2.32 z-score.
Consider GGGAAAAGGAAGTAAGTTGG, for which the results for the binding signal (in the assay with PU.1 (IVT); in assay [1]; in assay [2]) were 4.31 z-score, 3.9 z-score and 2.63 z-score, respectively.
In the same order, the values of CAGGCAAGGAACTACTGTGC are 1.06 z-score, 0.793 z-score and -0.115 z-score.
As for TAAAAGAGGAAGTGAATGGG, the binding signal with PU.1 (IVT) amounted to 8.3 z-score; in assay [1], 7.35 z-score; in assay [2], 4.13 z-score.
In the same order, the values of GAAATGAGGAAGTTGAGAGC are 8.36 z-score, 7.31 z-score and 3.9 z-score.
Take GCCTAGAGGAAGTGGGCAAT: the binding signal with PU.1 (IVT) amounted to 3.32 z-score; in assay [1], 3.16 z-score; in assay [2], 2.49 z-score.
In the same order, the values of AAAATGAGGAAGAGATTTAG are 5.12 z-score, 4.97 z-score and 1.69 z-score.
In the same order, the values of AAAAAGAGGAAGGGTGGCTG are 4.91 z-score, 5.24 z-score and 1.87 z-score.
As for AAAAAAGGGAAGTGAAGTAC, the binding signal in the assay with PU.1 (IVT) is 7.2 z-score; in assay [1], 6.9 z-score; in assay [2] it was 2.78 z-score.
On to CCAAACAGGAAGTGCTTGTC, for which the binding signal with PU.1 (IVT) was found to be 5.99 z-score; in assay [1], 6.47 z-score; in assay [2] it was 5.66 z-score.
On to CAAAAAGAGAAGTGGATGCT, for which the binding signal with PU.1 (IVT) came to 3.05 z-score; in assay [1], 3.1 z-score; in assay [2] it was 0.637 z-score.
In the same order, the values of AGAGGAAGGAAGTGGCTATG are 2.27 z-score, 2.44 z-score and 2.19 z-score.
In the same order, the values of TAAAAGGAGAAGTGTGACTC are 4.24 z-score, 4.86 z-score and 1.19 z-score.
Take CAGATGAGGAAGTGAAGAAC: the binding signal with PU.1 (IVT) came to 5.68 z-score; in assay [1], 6.15 z-score; in assay [2], 2.6 z-score.

Values taken from article PMC6451091.
